The source gives many values for each of these; only a part stands here.
Experiment: Tissue distribution by quantitative whole-body autoradiography (QWBA)
Format: in vivo, male Sprague Dawley and Long-Evans rats
Settings: 15 mg/kg IV
Protocol: The study utilized 4 groups of male SD rats (albino), and 3 groups of male LE rats (pigmented); a total of 39 rats. All animals were obtained from Hilltop Lab Animals, Inc. (Scottdale, Pa.). […] Rats in Group 5 were administered a single 2-h IV infusion of [^14C]brincidofovir at a target dose of 2 mg/kg. […] Three dosing formulations (one for high dose IV, one for low dose IV, and one for PO dose) were prepared at QPS on the day of dosing. The IV formulation for Groups 1, 2, 3, and 4 contained a vehicle of 10 mM sodium phosphate buffer in 5% dextrose solution at pH 8.0(±0.1).
Each animal, at their respective termination time points, was euthanized for QWBA analysis immediately after blood collection. One rat per time point per Group was euthanized as listed below.
The blood samples were maintained on wet ice (approximately 4° C.) and then centrifuged to obtain plasma within 1 h of the blood collection time. Centrifuge settings were recorded in the study notebook. Duplicate aliquots of plasma (0.050 mL) were analyzed for radioactivity using direct counting by LSC, and residual plasma was stored at approximately −70° C. and was saved for possible future analysis under a separate study protocol. Residual red blood cells were discarded as radioactive waste.
The pinna, distal limbs, hair, and tail were removed from each frozen carcass and each frozen carcass was embedded in an aqueous suspension of approximately 2% (w/v) carboxymethylcellulose and frozen into a block. The blocks were stored at approximately −20° C. prior to sectioning. Each blocked carcass was mounted on the object stage of a cryomicrotome (Leica CM3600 Cryomacrocut, Nussloch, Germany and Vibratome 9800, St. Louis, Mo.) maintained at approximately −20° C. and internal standards (3), which were plasma fortified with [^14C]-glucose at one concentration (approximately 0.05 μCi/mL), were placed into the frozen blocks, prior to sectioning, and were used for section thickness quality control. A number of whole-body sections (approximately 40 μm thick) were taken in the sagittal plane at various levels of interest using a whole-body cryomicrotome set at −20° C. Sagittal sections (20-50 μm thick) of frozen carcasses were exposed to phosphor imaging plates. Regions of images in tissues were converted to concentrations using standards. All of the major tissues, organs, and biological fluids were represented.
Tissue concentration data was determined for the following tissues and/or contents: adipose (brown and white), adrenal gland, bile (in duct), blood (cardiac), bone, bone marrow, brain (cerebrum, cerebellum, medulla), cecum (and contents), large intestine (and contents), epididymis, esophagus, eye (uvea and lens), Harderian gland, heart, kidney (cortex and medulla), liver, lung, lymph node, pancreas, pituitary gland, prostate gland, salivary gland, seminal vesicles, skeletal muscle, skin (pigmented and non-pigmented), small intestine (and contents), stomach (gastric mucosa and contents), spleen, spinal cord, testis, thymus, thyroid, and urinary bladder (and contents).
The imaging plate and sections were placed in light-tight exposure cassettes, in a copper-lined lead safe, for a 4-day exposure at room temperature. […] Quantification was performed by image densitometry using MCD image analysis software (v. 7.0, Interfocus Imaging Ltd) and a standard curve constructed from the integrated response [i.e., Molecular Dynamics Counts per square millimeter (MDC/mm^2)] and the nominal concentrations of the ^14C-calibration standards. The concentrations of radioactivity were expressed as the μg equivalents of [^14C]brincidofovir per gram sample (μg equiv/g). A lower limit of quantification (LLOQ) was applied to the data (See section 6.7.4).
Tissue concentrations that fell below the LLOQ were identified as being below the quantification limit (BQL). Tissue areas that were not visualized on autoradiographic images were identified as no sample (NS) and reported as BQL.

CCCCCCCCCCCCCCCCOCCCOP(=O)(O)CO[C@H](CO)Cn1ccc(N)nc1=O [[^14C]brincidofovir]
Concentration of radioactivity (Liver, 24 h, LE rat): 13.918 μg equiv/g tissue | Concentration of radioactivity (Liver, 72 h, LE rat): 3.261 μg equiv/g tissue | Concentration of radioactivity (Liver, 96 h, LE rat): 1.269 μg equiv/g tissue | Concentration of radioactivity (Liver, 168 h, LE rat): 0.451 μg equiv/g tissue | Concentration of radioactivity (Liver, 840 h, LE rat): BQL (BQL = Value is below the LLOQ) | Concentration of radioactivity (Lung, 1 h, LE rat): 3.063 μg equiv/g tissue | Concentration of radioactivity (Lung, 2 h, LE rat): 6.350 μg equiv/g tissue | Concentration of radioactivity (Lung, 4 h, LE rat): 3.690 μg equiv/g tissue | Concentration of radioactivity (Lung, 8 h, LE rat): 2.233 μg equiv/g tissue | Concentration of radioactivity (Lung, 24 h, LE rat): 0.585 μg equiv/g tissue | Concentration of radioactivity (Lung, 72 h, LE rat): 0.886 μg equiv/g tissue | Concentration of radioactivity (Lung, 96 h, LE rat): 0.362 μg equiv/g tissue | Concentration of radioactivity (Lung, 168 h, LE rat): 0.178 μg equiv/g tissue | Concentration of radioactivity (Lung, 840 h, LE rat): BQL (BQL = Value is below the LLOQ) | Concentration of radioactivity (Lymph Node, 1 h, LE rat): 1.682 μg equiv/g tissue | Concentration of radioactivity (Lymph Node, 2 h, LE rat): 4.002 μg equiv/g tissue | Concentration of radioactivity (Lymph Node, 4 h, LE rat): 2.244 μg equiv/g tissue | Concentration of radioactivity (Lymph Node, 8 h, LE rat): 1.936 μg equiv/g tissue | Concentration of radioactivity (Lymph Node, 24 h, LE rat): 0.745 μg equiv/g tissue | Concentration of radioactivity (Lymph Node, 72 h, LE rat): 0.710 μg equiv/g tissue | Concentration of radioactivity (Lymph Node, 96 h, LE rat): 0.270 μg equiv/g tissue | Concentration of radioactivity (Lymph Node, 168 h, LE rat): 0.247 μg equiv/g tissue | Concentration of radioactivity (Lymph Node, 840 h, LE rat): 0.062 μg equiv/g tissue | Concentration of radioactivity (Pancreas, 1 h, LE rat): 0.864 μg equiv/g tissue | Concentration of radioactivity (Pancreas, 2 h, LE rat): 1.896 μg equiv/g tissue | Concentration of radioactivity (Pancreas, 4 h, LE rat): 1.051 μg equiv/g tissue | Concentration of radioactivity (Pancreas, 8 h, LE rat): 0.834 μg equiv/g tissue | Concentration of radioactivity (Pancreas, 24 h, LE rat): 0.315 μg equiv/g tissue | Concentration of radioactivity (Pancreas, 72 h, LE rat): 0.194 μg equiv/g tissue | Concentration of radioactivity (Pancreas, 96 h, LE rat): 0.082 μg equiv/g tissue | Concentration of radioactivity (Pancreas, 168 h, LE rat): BQL (BQL = Value is below the LLOQ) | Concentration of radioactivity (Pancreas, 840 h, LE rat): BQL (BQL = Value is below the LLOQ) | Concentration of radioactivity (Pituitary Gland, 1 h, LE rat): 2.397 μg equiv/g tissue | Concentration of radioactivity (Pituitary Gland, 2 h, LE rat): 6.343 μg equiv/g tissue | Concentration of radioactivity (Pituitary Gland, 4 h, LE rat): 4.081 μg equiv/g tissue | Concentration of radioactivity (Pituitary Gland, 8 h, LE rat): 1.089 μg equiv/g tissue | Concentration of radioactivity (Pituitary Gland, 24 h, LE rat): 0.431 μg equiv/g tissue | Concentration of radioactivity (Pituitary Gland, 72 h, LE rat): 0.603 μg equiv/g tissue | Concentration of radioactivity (Pituitary Gland, 96 h, LE rat): 0.297 μg equiv/g tissue | Concentration of radioactivity (Pituitary Gland, 168 h, LE rat): 0.189 μg equiv/g tissue | Concentration of radioactivity (Pituitary Gland, 840 h, LE rat): BQL (BQL = Value is below the LLOQ) | Concentration of radioactivity (Plasma (by LSC), 1 h, LE rat): 2.754 μg equiv/g tissue | Concentration of radioactivity (Plasma (by LSC), 2 h, LE rat): 4.918 μg equiv/g tissue | Concentration of radioactivity (Plasma (by LSC), 2 h, SD rat): 7.130 μg equiv./g | Concentration of radioactivity (Plasma (by LSC), 4 h, LE rat): 3.080 μg equiv/g tissue | Concentration of radioactivity (Plasma (by LSC), 8 h, LE rat): 1.207 μg equiv/g tissue | Concentration of radioactivity (Plasma (by LSC), 24 h, LE rat): 0.154 μg equiv/g tissue | Concentration of radioactivity (Plasma (by LSC), 24 h, SD rat): 0.251 μg equiv./g | Concentration of radioactivity (Plasma (by LSC), 72 h, LE rat): 0.017 μg equiv/g tissue | Concentration of radioactivity (Plasma (by LSC), 96 h, LE rat): BQL (BQL = Value is below the LLOQ) | Concentration of radioactivity (Plasma (by LSC), 168 h, LE rat): BQL (BQL = Value is below the LLOQ) | Concentration of radioactivity (Plasma (by LSC), 168 h, SD rat): BQL (BQL = Value is below the LLOQ) | Concentration of radioactivity (Plasma (by LSC), 840 h, LE rat): BQL (BQL = Value is below the LLOQ) | Concentration of radioactivity (Prostate Gland, 1 h, LE rat): 0.561 μg equiv/g tissue | Concentration of radioactivity (Prostate Gland, 2 h, LE rat): 0.901 μg equiv/g tissue | Concentration of radioactivity (Prostate Gland, 4 h, LE rat): 0.715 μg equiv/g tissue | Concentration of radioactivity (Prostate Gland, 8 h, LE rat): 0.542 μg equiv/g tissue | Concentration of radioactivity (Prostate Gland, 24 h, LE rat): 0.157 μg equiv/g tissue | Concentration of radioactivity (Prostate Gland, 72 h, LE rat): 0.104 μg equiv/g tissue | Concentration of radioactivity (Prostate Gland, 96 h, LE rat): 0.127 μg equiv/g tissue | Concentration of radioactivity (Prostate Gland, 168 h, LE rat): BQL (BQL = Value is below the LLOQ) | Concentration of radioactivity (Prostate Gland, 840 h, LE rat): BQL (BQL = Value is below the LLOQ) | Concentration of radioactivity (Salivary Gland, 1 h, LE rat): 1.335 μg equiv/g tissue | Concentration of radioactivity (Salivary Gland, 2 h, LE rat): 2.508 μg equiv/g tissue | Concentration of radioactivity (Salivary Gland, 4 h, LE rat): 1.153 μg equiv/g tissue | Concentration of radioactivity (Salivary Gland, 8 h, LE rat): 0.821 μg equiv/g tissue | Concentration of radioactivity (Salivary Gland, 24 h, LE rat): 0.314 μg equiv/g tissue | Concentration of radioactivity (Salivary Gland, 72 h, LE rat): 0.190 μg equiv/g tissue | Concentration of radioactivity (Salivary Gland, 96 h, LE rat): 0.134 μg equiv/g tissue | Concentration of radioactivity (Salivary Gland, 168 h, LE rat): 0.056 μg equiv/g tissue | Concentration of radioactivity (Salivary Gland, 840 h, LE rat): BQL (BQL = Value is below the LLOQ) | Concentration of radioactivity (Seminal Vesicles, 1 h, LE rat): 0.938 μg equiv/g tissue | Concentration of radioactivity (Seminal Vesicles, 2 h, LE rat): 1.834 μg equiv/g tissue | Concentration of radioactivity (Seminal Vesicles, 4 h, LE rat): 2.285 μg equiv/g tissue | Concentration of radioactivity (Seminal Vesicles, 8 h, LE rat): 1.717 μg equiv/g tissue | Concentration of radioactivity (Seminal Vesicles, 24 h, LE rat): 1.127 μg equiv/g tissue | Concentration of radioactivity (Seminal Vesicles, 72 h, LE rat): 1.374 μg equiv/g tissue | Concentration of radioactivity (Seminal Vesicles, 96 h, LE rat): 1.038 μg equiv/g tissue | Concentration of radioactivity (Seminal Vesicles, 168 h, LE rat): 0.361 μg equiv/g tissue | Concentration of radioactivity (Seminal Vesicles, 840 h, LE rat): BQL (BQL = Value is below the LLOQ) | Concentration of radioactivity (Skeletal Muscle, 1 h, LE rat): 0.427 μg equiv/g tissue | Concentration of radioactivity (Skeletal Muscle, 2 h, LE rat): 0.611 μg equiv/g tissue | Concentration of radioactivity (Skeletal Muscle, 4 h, LE rat): 0.343 μg equiv/g tissue | Concentration of radioactivity (Skeletal Muscle, 8 h, LE rat): 0.152 μg equiv/g tissue | Concentration of radioactivity (Skeletal Muscle, 24 h, LE rat): 0.063 μg equiv/g tissue | Concentration of radioactivity (Skeletal Muscle, 72 h, LE rat): 0.070 μg equiv/g tissue | Concentration of radioactivity (Skeletal Muscle, 96 h, LE rat): 0.040 μg equiv/g tissue | Concentration of radioactivity (Skeletal Muscle, 168 h, LE rat): BQL (BQL = Value is below the LLOQ) | Concentration of radioactivity (Skeletal Muscle, 840 h, LE rat): BQL (BQL = Value is below the LLOQ) | Concentration of radioactivity (Skin (non-pigmented), 1 h, LE rat): 0.979 μg equiv/g tissue | Concentration of radioactivity (Skin (non-pigmented), 2 h, LE rat): 2.556 μg equiv/g tissue | Concentration of radioactivity (Skin (non-pigmented), 4 h, LE rat): 1.925 μg equiv/g tissue | Concentration of radioactivity (Skin (non-pigmented), 8 h, LE rat): 1.273 μg equiv/g tissue | Concentration of radioactivity (Skin (non-pigmented), 24 h, LE rat): 0.312 μg equiv/g tissue | Concentration of radioactivity (Skin (non-pigmented), 72 h, LE rat): 0.443 μg equiv/g tissue | Concentration of radioactivity (Skin (non-pigmented), 96 h, LE rat): 0.269 μg equiv/g tissue | Concentration of radioactivity (Skin (non-pigmented), 168 h, LE rat): 0.226 μg equiv/g tissue | Concentration of radioactivity (Skin (non-pigmented), 840 h, LE rat): BQL (BQL = Value is below the LLOQ) | Concentration of radioactivity (Skin (pigmented), 1 h, LE rat): 1.193 μg equiv/g tissue | Concentration of radioactivity (Skin (pigmented), 2 h, LE rat): 2.848 μg equiv/g tissue | Concentration of radioactivity (Skin (pigmented), 4 h, LE rat): 2.118 μg equiv/g tissue | Concentration of radioactivity (Skin (pigmented), 8 h, LE rat): 1.233 μg equiv/g tissue | Concentration of radioactivity (Skin (pigmented), 24 h, LE rat): 0.491 μg equiv/g tissue | Concentration of radioactivity (Skin (pigmented), 72 h, LE rat): 0.337 μg equiv/g tissue | Concentration of radioactivity (Skin (pigmented), 96 h, LE rat): 0.209 μg equiv/g tissue | Concentration of radioactivity (Skin (pigmented), 168 h, LE rat): 0.090 μg equiv/g tissue | Concentration of radioactivity (Skin (pigmented), 840 h, LE rat): BQL (BQL = Value is below the LLOQ) | Concentration of radioactivity (Small Intestine (contents), 1 h, LE rat): 50.503 μg equiv/g tissue | Concentration of radioactivity (Small Intestine (contents), 2 h, LE rat): 422.957 μg equiv/g tissue
